Laboratory results taken from the RNAGym collection of RNA variant scans (doi:10.7554/elife.90254).
The source gives no read counts; variants with many changes may rest on few reads.

B1: LINE1-mini (parent)
chain: GGCAGAGCUCAACACAGCGUGGCAAAGUGGCUGUGGCUAGACUGCC

Variants of: B1
Assay: self-cleavage, relative activity (ratio to wild type); higher = more cleavage; in vitro, sequencing; the parent is a self-cleaving ribozyme

Variant	self-cleavage
G5C G19U G22C	0.03
G5U A16U G35A	0.05
G5U C8A C10U G36C	0.05
G5U A14U A16C A25C C31A	0
G5U A11U U28A G35A	0.02
G5C G40A U43C	0.03
G5C G22U U34G A41G	0
G5C G22C A41U	0.07
G5C G22U C23U U38A A39U	0.01
G5U A6U A11G A25G G27U	0.02
G5U C10A C15A A26U G29C A39G	0.02
G5U A6C G35U	0.1
G5U A16C G19C	0.05
G5C U20G G35A	0.09
G5U C8A G21U U38C G44U	0.27
G5U A26G A39G	0.18
G5C G17A C18G U32G G33C	0.07
G5C G44A C46A	0.04
G5U A14U C15A G17A G21U A25C G27U U38A	0.03
G5C G22C C45U	0.06
G5U C10A A26C	0.01
G5C U20G U28C G29C	0.02
G5U C8U A14U	0.49
G5C G17U C42U	0.06

Variant	self-cleavage
G5U C10A C15G A26C U32A	0.01
G5C U20A U32C G36C	0.01
G5U A16U A24U	0.06
G5U A6C A14G C18U A25G G33A U34A	0.01
G5U A14C G35U	0.3
G5C G21U A41G G44C	0.19
G5U A24G G35A A39G	0.1
G5U C10A C13U G22U	0.05
G5C G7A C18A	0.08
G5U A11G C18A G44C	0.03
G5U C8G C23G	0.13
G5U A26U U28A C46U	0
G5U C10A A39U C46U	0.03
G5U A6C A12C A16G G17C A25U G40A	0.03
G5C U38A A39U	0.12
G5U A14C C18U C23U	0.01
G5U C8A G44C C45G	0.15
G5U A41U G44U	0.01
G5C G7U U43A	0.35
G5U C10A A24C A26G	0
G5U A6G G40A A41G	0.13
G5U C8A A39G	0.11
G5U A11U G40U	0.1
G5U A16U A26U	0.04

Variant	self-cleavage
G5U A25C U34C	0.03
G5C G7A G17C	0.17
G5U C8A A12C G21U C23G G27C G29C C46A	0.01
G5C G17U G19U A39G	0.02
G5U C8A G30A	0.33
G5C U9G U20C G22U A25U G29C	0.06
G5U C8A G19A	0.26
G5U C8U U9C	0.06
G5U A14U G19C	0.03
G5U A24G G27U G30U	0.27
G5U A6C C8U G27U	0.16
G5C G17C G30U G40U	0.06
G5U A11G C15A G19U G35A A41U	0.04
G5U A12C C18G G22C A25C	0.01
G5C G27A A41G	0.24
G5C G22C G35C C46A	0.07
G5C G7U C15A U34A	0.15
G5C U9A A11U	0.03
G5U A6C A16U G22C G27C	0.02
G5U A6C A24C U28G A39G	0.02
G5C G7A C45A C46U	0.24
G5U A14G G36U C37G C42G	0.03
G5C G22A U32A	0.02
G5U A11G C15A U20G G40A	0.03

Variant	self-cleavage
G5C G17A U34A G44A	0.02
G5C G19A A25G A26U U32G G36C	0
G5C G7C G30U C45A	0.02
G5U A16G G40U	0
G5U A6C C8G C42A	0.05
G5U C8G A12G G27U G29U U43C	0.02
G5C G17A U34C	0.07
G5C U9G G35A	0.03
G5C U9A G35U	0.05
G5C G7A C31A	0.16
G5C G7U U28G	0.01
G5U A16G G21U	0.07
G5U C10A C15A A16U G17U A24C	0.01
G5U A16G C45A	0.01
G5C U38G C45U	0.09
G5U C10A A39G	0.01
G5U A6G A26U	0.05
G5U C10A C31U	0
G5C G7U A11C	0.15
G5C G7C C8G G22C U32A G33U	0.06
G5C G21C U32C G35C	0.04
G5C G29C A39U	0.02
G5U C8A G33U U34A C37U	0.21
G5U A26G C31U G35U	0.02

Variant	self-cleavage
G5C G17A U34C C37G	0.04
G5U A6G U9C G44C	0.03
G5C G30U C31A	0.06
G5C U9C C15A G27C U38A G40A	0.02
G5U A41U C45G	0.03
G5U C10A A12U G27U G30A C45U	0.06
G5U A26C C37A A41U	0.05
G5U C8U C10U G19U G30C C46A	0.04
G5U A12U G19C U38G	0
G5U C10G A24U A39G C42U U43A	0.02
G5C G7U C18U C42U	0.11
G5C G19U C23U G29C G33A C45G	0.04
G5U A39U G44U	0.08
G5C G17U C23A U38C A39U	0.03
G5C G7C C15A A25G	0.04
G5C G22A G30C A39U	0.31
G5U A12C C15A A24C G27U	0.04
G5U C10A G19U G36C G44U C46A	0
G5C U9G C42U	0.04
G5U A11U U20A	0.02
G5U A39G G40C G44U	0.03
G5C G19C C23U A26U	0.04
G5C U9G A26C C45U	0.08
G5U A12U A24C	0.03

Variant	self-cleavage
G5C G7C G17A	0.01
G5U C10A A11G U28G G29C G30A	0.01
G5U A14U C15A C18A	0.08
G5C G17A G35C	0.09
G5U C8U G21U	0.08
G5U A12G C15G A16U G22C	0.05
G5U A16U U32G G40U	0.12
G5U C8G C23A U32C C37U G44U	0.01
G5U C8G A16C C18A	0.06
G5C U38C A39U	0.09
G5U C10A G22U A25G A26G C31A	0.03
G5C U9G A11U A12U C42A	0
G5C U38G C46A	0.02
G5U A14G U38C A41G	0.05
G5C G17U C18A C45U	0.03
G5C G35A C37U C46U	0.02
G5U A11U G21U	0.03
G5U A11G C13A G35U C37A	0.08
G5U C8A U9A G40C	0.17
G5C G17U U28A G29U G35A	0.04
G5U A25U G29U	0.24
G5C U9G A12U A16G	0.01
G5U A12U G21C A39U	0.02
G5U C8A A26C	0.82

Variant	self-cleavage
G5C G22C C23A C46G	0.04
G5U C10A C13U U32A	0.01
G5U A11G G17U A25G G33A G36C C45A	0
G5C G30U U32A C42G	0.04
G5U A12G U32C G40C C46U	0.06
G5U A6G C13G G22U G29A	2.9
G5C G27U G40A	0.07
G5C G7A G22A G29A	0.19
G5C G19A G21A G22A	0.1
G5U A24C G33A	0.03
G5U A6C G33U C42A	0.1
G5U A24U G33A	0.02
G5C U9C A14G C15A U32G G33U	0.02
G5U A16C G30U	0
G5C G7C C8U G19U G27A U38C	0.24
G5U C8G A12U	0.03
G5C G33C C42U	0.03
G5C U34G U38A G40U	0.05
G5C C37G A39U A41G	0.02
G5U A24C G44U	0.04
G5C U9C A12U G17U A41C	0.02
G5U A6U U20A C31G G44A	0.03
G5U A12C G35C U38A A39C	0.05
